Data from PubChem BioAssay AID588855 (National Center for Advancing Translational Sciences (NCATS), 2011).
“And” between values parts separate entries of the source, which are not always exact repeats. Equal entries are not always repeated. In all, about 410,000 compounds went through this assay and about 5,000 (1.2%) were called active. Inconclusive results, whose numbers are uncertain, are shown with a selection of clear calls. Calls come from the whole dose curve; as a rule, active = well fitted inhibition curve with a large enough effect; inconclusive = small, poorly fitted or top-dose-only effect; inactive = no such curve, though single readings can be large or run the other way. A potency beside an inconclusive call is a rough fit, not a confirmed value.

Experiment: qHTS for Inhibitors of TGF-b; note: nearly all actives have a fitted effect of over 65% in size
Settings: HepG2 CAGA-GFP TGF-b/SMAD3 reporter, GFP fluorescence, 18 h, TGF-beta stimulated, 500 pg/mL final; series mostly up to 46.1 µM; activity, negative = inhibition: at the top concentration
Summary of the method: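 HEPG2 CAGA-GFP reporter cells (1000/well, DMEM with 1% FBS) received compounds, then recombinant TGF-beta at 500 pg/mL final for 18 hours at 37 degrees C. Per-cell GFP summed per well was normalised to unstimulated and stimulated DMSO controls before curve fitting.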
% is set by controls: 0 for no effect and ±100 for the full control effect; potency is the fitted concentration of half-maximal effect; tags give direction and shape of the fitted curve.

Structure (SMILES)	Potency	activity, negative = inhibition
CCOC(=O)c1ccccc1NC(=O)CN1CCCN(Cc2cc(C)ccc2C)S1(=O)=O	inconclusive: 0.501 µM [inhibitor, full curve, poor fit]	–
CC(C)c1cc(Br)ccc1OCCCN1C(=O)NC(C)(C)C1=O	inconclusive: 20 µM [inhibitor, single point]	–
COc1ccc(C(=O)O)cc1NCc1cccnc1	–	inactive: 0.751%
CSc1ccccc1C(=O)Nc1ccccc1C(=O)NC(C)C	–	inactive: 0.215%
c1csc(CNc2ncnc3nc[nH]c23)c1	inactive	–
Clc1cccc(Cl)c1CO/N=C/c1c(-c2ccccc2)nc2n1CCS2	inconclusive: 2.82 µM [inhibitor, single point]	–
Cc1ccc(Cl)cc1NC(=O)COC(=O)CC(C)(C)CC1=NS(=O)(=O)c2ccccc2N1	inconclusive: 35.5 µM [inhibitor, single point]	–
CC[C@@]12C(=O)N(c3ccc(OC)cc3)C(=O)N1[C@H](c1cccc(C)c1)[C@@H]1C(=O)N(Cc3ccccc3)C(=O)[C@@H]12	inconclusive: 7.08 µM [inhibitor, partial curve, poor fit]	–
O=S1(=O)N=C(N(CCO)/N=C/C=C/c2ccccc2)c2ccccc21	inconclusive: 12.6 µM [inhibitor, partial curve]	–
CCOc1ccc(S(=O)(=O)N2CCN(c3ccccc3)CC2)c2cccnc12	inconclusive: 35.5 µM [inhibitor, single point]	–
O=C(Cc1ccccc1)Nc1ccc(C(=O)NCC2COc3ccccc3O2)cc1 (stereo unspecified)	inconclusive: 17.8 µM [inhibitor, single point]	–
Cc1ccc(S(=O)(=O)c2c(C)cc(C)nc2Cl)cc1	–	inactive: -26.8%
Cc1ccc(-n2cccc2C(=S)N=P(N(C)C)(N(C)C)N(C)C)cc1	inconclusive: 35.5 µM [inhibitor, single point]	–
COc1ccc(S(=O)Cc2ccc(C(=O)N3CCN(c4cccc(C)c4C)CC3)o2)cc1 (stereo unspecified)	inconclusive: 10 µM [inhibitor, partial curve, poor fit]	–
CC1CCCCC1NC(=S)Nc1ccc(SC(F)F)cc1 (stereo unspecified)	inconclusive: 17.8 µM [inhibitor, single point]	–
Cc1c(Nc2ccc3nonc3c2[N+](=O)[O-])c(=O)n(-c2ccccc2)n1C	–	inactive: 7.54%
COc1ccc(N2CCN(C(=O)c3cc(=O)c4cc(C)ccc4o3)CC2)cc1	–	inactive: -0.108%
Cc1ccc(-c2nc(CCNC(=O)c3ccco3)cs2)cc1	–	inactive: -16.5%
COc1cc(NC(=O)C2CCCN(S(=O)(=O)c3ccc4c(c3)CCCN4C(C)=O)C2)cc(OC)c1 (stereo unspecified)	inconclusive: 35.5 µM [inhibitor, single point]	–
C/C=C/c1ccc(OCc2cc(=O)n3cc(C)ccc3n2)c(OC)c1	inconclusive: 14.1 µM [inhibitor, single point]	–
O=C(O/N=C1\CCCc2ccccc21)c1cccc(Cl)c1	inconclusive: 4.47 µM [inhibitor, full curve, poor fit]	–
CCc1cccc(C)c1NC(=O)CCS(=O)(=O)c1cc(Br)cc2c1N(C(=O)C1CC1)CC2	inconclusive: 25.1 µM [inhibitor, single point]	–

Structure (SMILES)	Potency	activity, negative = inhibition
CCOC(=O)Cn1nc(C)n(-c2ccccc2)c1=O	–	inactive: -4.88%
COc1ccc(C)cc1NC(=O)CSc1nnc(COc2ccc(Cl)cc2)n1Cc1ccco1	inconclusive: 35.5 µM [inhibitor, single point]	–
O=C(COc1ccc(Cl)cc1Cl)Nc1ccc(-c2ccc(N3CCOCC3)nn2)cc1	–	inactive: 1.44%
CCCN(CC(=O)Nc1ccccc1OC)C(=O)CSc1ccc(Br)cc1C	inconclusive: 35.5 µM [inhibitor, single point]	–
COc1ccc(NC(=O)/C(C#N)=C\c2ccc(N3CCOCC3)o2)cc1	–	inactive: 183%
Cc1ccc(S(=O)(=O)NCC(=O)NCC(=O)N(C)Cc2ccc(Br)s2)cc1C	inconclusive: 6.31 µM [inhibitor, single point]	–
O=C(NNc1nccc(C(F)(F)F)n1)Nc1cccc(Cl)c1	inconclusive: 12.6 µM [inhibitor, partial curve, poor fit]	–
COc1ccc(N=C2SC(C(=O)Nc3ccc(OC)cc3)CC(=O)N2CCN2CCOCC2)cc1 (stereo unspecified)	inconclusive: 35.5 µM [inhibitor, single point]	–
CN(Cc1cccnc1)C(=O)CNC(=O)c1ccc(Cl)cc1Cl	–	inactive: 0.754%
COc1ccc(Cl)cc1NC(=O)CN(C)C(C)C(=O)NC(=O)NC1CCCCC1 (stereo unspecified)	inconclusive: 17.8 µM [inhibitor, partial curve, poor fit]	–
CCCCN(CCCNC(=O)c1cc(Nc2ccccc2OC)nc2ccccc12)c1ccccc1	inconclusive: 17.8 µM [inhibitor, single point]	–
O=C(Nc1nnc([C@H]2C[C@H](O)[C@@H](CO)O2)s1)Nc1ccccc1F	inconclusive: 35.5 µM [inhibitor, single point]	–
Cc1cc2cc(CN(CC3CCCO3)C(=S)Nc3ccccc3)c(=O)[nH]c2cc1C (stereo unspecified)	inconclusive: 11.2 µM [inhibitor, single point]	–
COc1ccc(C2(CNC(=O)C(=O)Nc3ccccc3C)CCCC2)cc1OC	–	inactive: -22.2%
CCOCCCNC(=O)/C(C#N)=C/c1ccc(Cl)c([N+](=O)[O-])c1	inconclusive: 35.5 µM [inhibitor, single point]	–
O=C(NC12CC3CC(CC(C3)C1)C2)c1ccc([N+](=O)[O-])cc1	inconclusive: 1.26 µM [inhibitor, partial curve, poor fit]	–
CN(C)c1cc(C(F)(F)F)nc(-c2ccccn2)n1	–	inactive: -0.121%
COc1cc(/C=C2\CCc3ccccc3C2=O)cc(OC)c1OC	inconclusive: 25.1 µM [inhibitor, partial curve, poor fit]	–
CN(C)S(=O)(=O)Oc1ccsc1C(=O)Nc1ccc(Br)cc1	inconclusive: 35.5 µM [inhibitor, partial curve, poor fit]	–
CCN(CC)c1ccc(C2Nc3ccccc3-c3cc(C)nn32)cc1 (stereo unspecified)	inconclusive: 35.5 µM [inhibitor, single point]	–
Cc1ccc(S(=O)(=O)c2nc(-c3ccc(F)cc3)oc2N2CCN(c3ccccc3)CC2)cc1	–	inactive: -0.0326%
Cc1ccc(C)c(N2CCN(C(=O)CCc3nc(-c4ccccc4C(F)(F)F)no3)CC2)c1	inconclusive: 14.1 µM [inhibitor, single point]	–

Structure (SMILES)	Potency	activity, negative = inhibition
Cc1ccccc1S(=O)(=O)N(C)C[C@@H]1OCc2cn(nn2)CCCC(=O)N([C@H](C)CO)C[C@H]1C	–	inactive: 7.47%
COc1ccccc1Nc1ncnc2scc(-c3ccc(F)cc3)c12	inconclusive: 22.4 µM [inhibitor, single point]	–
Cc1nn(-c2ccccc2)c2c1N(CC(=O)N1CCN(c3ccccc3F)CC1)C(=O)CS2	inconclusive: 4.47 µM [inhibitor, partial curve, poor fit]	–
COc1ccc(C2/C=C\CN(C(=O)CC(C)C)CC(=O)N2Cc2ccc(F)cc2)cc1 (stereo unspecified)	inconclusive: 0.126 µM [inhibitor, full curve, poor fit]	–
Cc1ccc(C(=O)N2CCN(c3cccc(C)c3C)CC2)cc1S(=O)(=O)N1CCOCC1	–	inactive: -8.99%
COc1cc(OC)c(NC(=O)N2CCC(CN3CCCC3)CC2)cc1Cl	–	inactive: 10.3%
Cn1nnnc1Sc1ncnc2scc(-c3ccsc3)c12	active: 12.6 µM	–
Cc1ccc2c(c1)C1CC(C)(O2)N(c2cccc(C(=O)NCc3ccccn3)c2)C(=O)N1 (stereo unspecified)	–	inactive: 1.84%
Cc1cc(C(=O)NCc2ccccc2)c2c(C)nn(-c3cccc(F)c3)c2n1	–	inactive: -16.6%
COc1ccc(NC(=O)CC2Nc3ccccc3NC2=O)cc1 (stereo unspecified)	inconclusive: 15.8 µM [inhibitor, partial curve, poor fit]	–
C/C(Cn1nnc([N+](=O)[O-])n1)=N\NC(=O)c1ccncc1	–	inactive: -23.1%
CCCCCN(C(=O)CCC(=O)OC(C)C(=O)c1ccc(CC)cc1)c1c(N)n(CCCC)c(=O)[nH]c1=O (stereo unspecified)	inconclusive: 7.08 µM [inhibitor, partial curve]	–
COc1cccc(CSc2nc3ccncc3[nH]2)c1	–	inactive: 0.044%
CC(=O)c1ccc(N2CCN(C(=O)c3cccc(Oc4ccccc4)c3)CC2)cc1	inconclusive: 0.562 µM [inhibitor, full curve, poor fit]	–
Nc1c(S(=O)(=O)O)cc(Nc2ccc(Nc3nc(Cl)nc(Nc4ccc(S(=O)(=O)O)cc4)n3)c(S(=O)(=O)O)c2)c2c1C(=O)c1ccccc1C2=O	–	inactive: -3.59%
CCc1ccc(/C=C2\SC(=S)N(CCCC(=O)N(CCO)c3ccccc3)C2=O)cc1	inconclusive: 35.5 µM [inhibitor, single point]	–
Cc1ccccc1NC(=O)COC(=O)c1ccc(S(C)(=O)=O)c([N+](=O)[O-])c1	active: 11.2 µM and active: 7.94 µM	–
CCCN(C(=O)COc1ccc(Cl)cc1Cl)c1c(N)n(Cc2ccccc2)c(=O)[nH]c1=O	inconclusive: 35.5 µM [inhibitor, partial curve, poor fit]	–
COc1cc(Nc2nc(SCC(=O)c3ccc(Cl)c(Cl)c3)nc3ccccc23)cc(OC)c1	inconclusive: 11.2 µM [inhibitor, partial curve, poor fit]	–
CC(C)(C)c1ccc(C(=O)NCCCNC(=O)c2ccccn2)cc1	–	inactive: -14.7%
COc1ccc(CC(N)c2csc(NC(=O)CCc3ccccc3)n2)cc1 (stereo unspecified)	inconclusive: 22.4 µM [inhibitor, single point]	–
O=C(C1=C[C@@H](C2CC2)C[C@@H](OCCCCO)O1)N1CCN(Cc2ccc3c(c2)OCO3)CC1	inconclusive: 6.31 µM [inhibitor, full curve, poor fit]	–
